Target: the molecule itself
Experiment: SEC; purified, refolded recombinant 6×His-sfGFP-UXT on a size-exclusion column

B1: 6×His-sfGFP-UXT (natural protein)
chain: not shown
notes: UXT, human; expected molecular weight of the tagged protein 46.9 kDa; Plasmid pRSF-6×His-sfGFP-UXT; also called recombinant 6×His-sfGFP-UXT; purified UXT; not shown: 6×His, N-terminal, kept; superfolder GFP, N-terminal, kept
binding result: binds

Source: publication PMC11910115, “UXT oligomerization is essential for its role as an autophagy adaptor” (iScience, 2025)
